Reference: PubChem BioAssay AID1963576 (National Center for Advancing Translational Sciences (NCATS), 2024)
Hit rate of the full screen: of about 46,000 compounds, about 60 (0.1%) were called active. Not shown: some 3% with an inconclusive outcome. Calls follow the shape of the dose curve; as a rule, active = well fitted inhibition curve with a large enough effect; inconclusive = small, poorly fitted or top-dose-only effect; inactive = no such curve, though single readings can be large or run the other way. The list shows a part of the results.

assay: Primary qHTS assay for Inhibitors of ovarian cancer metastasis using an organotypic tumor microenvironment (TME) model.; also: nearly all actives have a fitted effect of over 65% in size;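 as to activity change, negative = inhibition: plate controls were DMSO wells for no effect and tomatine positive control wells for full effect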; details: SKOV3ip1-GFP adhesion/invasion on 3D omental model, fluorescence; series mostly up to 45.8 µM; activity change, negative = inhibition: at the top concentration
Method in brief: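 Adhesion/invasion was scored as fixed GFP-labeled SKOV3ip1 cell counts (488/509 nm), normalized to DMSO and tomatine controls. Cancer cells in serum-free medium, with four compound doses (0.36-46 umol/L), sat 2 hr at RT then 16 hr at 37 C on a 48 hr fibroblast/mesothelial/ECM culture.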

outcome, inactive:
CCN(C(=O)CSc1nc2ccccc2n1CC(=O)Nc1ccc(F)cc1F)c1ccccc1
Cc1cc(C)n(CCc2nc3c4ccccc4nc(N4CCN(c5ccc(F)cc5)CC4)n3n2)n1
COc1ccc(NC(=O)C2CCN(c3cnccn3)CC2)cc1Cl
COc1ccc(C2Oc3nc(SC)nnc3-c3ccccc3N2C(C)=O)cc1 (stereo not given)
Cn1c(Oc2ccc(Cl)cc2)nc2c1c(=O)n(Cc1ccc(F)cc1)c(=O)n2C
Cc1ccc(C)c(NS(=O)(=O)c2cc3c4c(c2)C(C)C(=O)N4CCC3)c1 (stereo not given)
Cc1nc2ccn(Cc3ccco3)c(=O)c2cc1C(=O)NCc1ccc(F)cc1
Cc1ccc(NC(=O)CN2C(=O)CC(C)Sc3ccccc32)c(C)c1 (stereo not given)
Cc1ccc(S(=O)(=O)NCCc2csc(-c3cccc(F)c3)n2)cc1
CCc1nn2c(=O)cc(COC(=O)C(CC)c3ccccc3)nc2s1 (stereo not given)
CN(C)c1ccc(NC(=O)CSC2=Nc3ccccc3C3=NC(CCC(=O)NCc4cccs4)C(=O)N23)cc1 (stereo not given)
COc1ccc(CC(=O)N2CCc3cc(OC)c(OC)cc3C2COc2ccc(F)cc2)cc1OC (stereo not given)
COc1ccc2c(CNCc3cccs3)c(C(=O)O)n(Cc3ccccc3F)c2c1
CCOC(=O)COc1ccc(C)cc1C(=O)c1ccn2nc(-c3ccc(F)cc3)cc2n1
Cc1c(C(=O)NC(C)c2ccccc2)sc2nc3n(c(=O)c12)CCCC3 (stereo not given)
Cc1ccc2c(=O)c(C(=O)c3cccc(Cl)c3)cn(CC(=O)Nc3ccccc3C(F)(F)F)c2n1
CCCC1=Nc2cc(C(=O)N3CCC(C)CC3)ccc2Sc2ccc(C)cc21
CC1=C(C(=O)OC2CCCCCC2)C(c2cccc(Cl)c2)CC(=O)N1 (stereo not given)
COc1ccc(-c2noc(-c3ccc(NCC4CCCO4)c([N+](=O)[O-])c3)n2)cc1OC (stereo not given)
COc1ccccc1CNC(=O)c1oc2ccc3c(c2c1C)C(=O)CC(C)(C)O3
CC1=Nc2cc(C(=O)NCCc3ccc(Cl)cc3)ccc2Sc2c(C)ccc(C)c21
COc1ccc(N2CC(NC(=O)COc3ccc4ccccc4c3)CC2=O)cc1OC (stereo not given)
COc1ccc(NC(=O)Cn2cc(S(=O)(=O)Cc3ccc(F)cc3)c3ccccc32)cc1OC
COc1ccc(NC(=O)c2cnc(N3CCCCC3)c3ccccc23)cc1Cl
Cc1ccc(-n2c(=O)c3c4c(sc3n(CC(=O)Nc3ccccc3C)c2=O)CCCCC4)cc1C
CCCCC1CCC(C(=O)N2CC(=O)Nc3ccc(Cl)cc3C2c2ccc(F)cc2)CC1 (stereo not given)
Cc1ccc(CNC(=O)Cn2c(=O)n(Cc3ccc(F)cc3)c(=O)c3sc4ccccc4c32)cc1
CCOc1ccccc1NC(=O)c1c(NCc2sccc2C)sc2c1CCC(C)C2 (stereo not given)
Cc1cc(-c2ccc(S(=O)(=O)Nc3ccc(Cl)cc3C)cc2)on1
CC(CNC(=O)CCCn1c(=O)c2cccn2c2ccccc21)c1ccccc1 (stereo not given)

Activity change, negative = inhibition, inactive:
CCN(C(=O)CSc1nc2n[nH]c(C)c2c(=N)n1-c1cccc(OC)c1)c1cccc(C)c1 -13.1%
Cc1cn2c(=O)c(S(=O)(=O)NCc3ccccc3Cl)c(C)nc2s1 -7.87%
Cc1ccc2[nH]c3c(=O)n(CC(=O)NCCc4ccc(Cl)cc4)ncc3c2c1 -0.955%
CCn1cc(S(=O)(=O)c2cccc(C)c2)c(=O)c2cc(F)c(N3CCN(c4ccccc4)CC3)cc21 -0.208%
COCCCn1c(=O)c2sccc2n2c(CCCC(=O)NCc3ccc(F)cc3)nnc12 -1.43%
CCc1ccc(-n2nc(CO)c(C(=O)NCc3ccccc3OC)n2)cc1 0.35%
COc1ccc(C(=O)NC(c2ccc(Cl)cc2)c2cc(Cl)c3cccnc3c2O)cc1 (stereo not given) 1.62%
CC(=O)C1=C(O)C=C2Oc3c(C(C)=O)c(O)c(C)c(O)c3C2(C)C1=O (stereo not given) -2.03%
O=C(NCCc1ccccc1)c1ccc2c(c1)N(Cc1ccc(F)cc1)C(=O)c1ccccc1S2 -9.6%
COc1ccc(CCNC(=O)Cc2c(C)c3cc4c(C)coc4c(C)c3oc2=O)cc1 -22.3%
COc1ccc(CCNC(=O)C2COc3ccccc3C2)cc1OC (stereo not given) -6.42%
CCc1ccccc1NC(=O)CC1Sc2ccc(C(F)(F)F)cc2NC1=O (stereo not given) 45.3%
CCCCSc1nnc2c(n1)OC(C)N(C(C)=O)c1ccccc1-2 (stereo not given) 2.25%
Cc1cc(Nc2nc(N[C@@H](C)c3ncc(F)cn3)ncc2Cl)n[nH]1 8.64%
Cc1cc(C)cc(NC(=O)CCC(=O)N2CCSc3ccccc32)c1 3.51%
CCCCN(CC)C(=O)c1cc2c(=O)n3cccc(C)c3nc2s1 -5.96%
O=C(c1ccc(Nc2nc3ccccc3n3nnnc23)cc1)N1CCN(c2cccc(C(F)(F)F)c2)CC1 -0.603%
CCOC(=O)c1cccc(NS(=O)(=O)c2cc3c(cc2C)NC(=O)CO3)c1 -5.49%
Cn1c(SCc2ccc(Br)cc2)nc2c([nH]c3ccccc32)c1=O -8.14%
Cc1cccn2c(=O)c3cc(C(=O)Nc4ccc(Cl)c(Cl)c4)sc3nc12 1.94%
Cc1ccc(Nc2ccc(N3CCN(C(=O)c4ccc([N+](=O)[O-])cc4)CC3)nn2)cc1 -9.77%
Cc1ccc(OCC(=O)OCc2cc(=O)n3nc(C4CC4)sc3n2)cc1 3.82%
Cc1cc(C)n(C(C)CC(=O)NCc2ccc(Cl)cc2)n1 (stereo not given) 0.71%
Cc1c(Cl)cccc1-n1ncc(C(=O)N2CCOCC2)c1C1CCN(C(=O)OC(C)(C)C)CC1 -2.44%
CCNC(=O)Cn1nc(C)n2c(cc3c(OC)cccc32)c1=O 4.57%
Cc1ccc(NC(=O)C2CCN(c3nnc(C)c4c(C)n(-c5ccccc5)nc34)CC2)cc1Cl -2.98%
Cc1oc2ccc(O)c(CN3CCOCC3)c2c1C(=O)Nc1cccc(Cl)c1C 1.52%
CCOC(=O)c1c(Oc2ccc(C(C)=O)cc2)nnc(-c2ccccc2)c1-c1ccccc1 -18.9%
COc1ccc(C(=O)NCCn2cc(SCC(=O)Nc3ccc4c(c3)OCCO4)c3ccccc32)cc1OC 3.22%
CCOC(=O)Cn1c(=O)n(-c2ccccc2OC)c2nc(-c3ccc(C(C)C)cc3)nc(C(N)=O)c21 -9.02%
COCCCNC(=O)C1CCN(c2cc(C)nc3c(-c4ccc(Cl)cc4)c(C)nn23)CC1 23.7%
O=C(CC1N=C2c3ccccc3N=C(SCC(=O)Nc3ccc(F)cc3)N2C1=O)NCc1cccs1 (stereo not given) -8.14%
CCCNC(=O)CSc1nc(-c2ccc(OC)cc2)cc(C(F)(F)F)n1 -0.147%
O=C(NCc1ccccc1)c1ccc2oc(=O)n(Cc3ccccc3)c2c1 120%
CC1CCN(C(=O)c2cccc(NC(=O)c3nsc4ccccc34)c2)CC1 9.67%
COCCNC(=O)c1ccc2c(c1)N=C(C)c1cc(C)ccc1S2 -9.62%
NS(=O)(=O)c1ccc2nc(NC(=O)COc3ccc(Cl)cc3Cl)sc2c1 7.5%
COc1cccc(C(=O)Nc2cccc(C(=O)OCc3cc(=O)n4c(C)csc4n3)c2)c1 -5.59%
Cn1c(SCC(=O)Nc2nc3ccccc3s2)ncc(C(=O)Nc2ccc(F)cc2)c1=O -5.01%
COc1ccccc1Cc1nc2ccccc2nc1SCC(=O)NCc1ccccc1Cl -3.43%
CN1CCc2nc3sc(C(=O)Nc4ccccc4C(F)(F)F)c(N)c3cc2C1 -7.45%
CCOc1ccc(-n2nc3ccc(NC(=O)c4ccc(-c5cccc(Cl)c5)o4)cc3n2)cc1 15%
Cc1nc2scc(C)n2c(=O)c1S(=O)(=O)Nc1cccc(C(F)(F)F)c1 -2.57%
COc1ccccc1C(=O)OCc1cc(=O)n2nc(C(C)C)sc2n1 -5.74%
CC(=O)Nc1ccc(NC(=O)CCS(=O)(=O)c2ccc3c(c2)CC(=O)N3C)cc1 54.9%
CC1CCCCN1CCCNC(=O)c1cc(Sc2ccc(Cl)cc2)nc2ccccc12 (stereo not given) -5.99%
CCOC(=O)CC(=O)CSc1nc2ccccc2c(=O)n1CCc1ccc(S(N)(=O)=O)cc1 5.24%
CC1Cc2cc(S(=O)(=O)NCc3ccc(N(C)C)cc3)ccc2N1C(=O)C1CCC1 (stereo not given) 15.5%
CCN1C(=O)C(Cc2nc3ccccc3c(=O)n2-c2ccc(OC)cc2)c2ccccc21 (stereo not given) -2.18%
Cc1c(CN2CCN(S(C)(=O)=O)CC2)sc2c(N3CCOCC3)nc(-c3cnc(N)nc3)nc12 -1.85%
CCOC(=O)C1CCC(CN(Cc2cccc(Br)c2)S(=O)(=O)c2ccc(Cl)cc2)CC1 (stereo not given) -9.58%
Cc1ccc(C)c(CNC(=O)c2cc3ccccn3n2)c1 -2.96%
O=C(O)c1ccc(-c2cc3cccnc3c(-c3ccc4nonc4c3)n2)cc1 7.04%
CCC(C)NC(=O)c1sc2nc(C)c(C(=O)Nc3ccc(C)cc3C)c(-c3ccccc3Cl)c2c1N (stereo not given) -1.19%
COc1ccccc1CNc1nccn(-c2ccccc2)c1=O -1.06%
CCOC(=O)c1cccc2c1N[C@@H](c1ccc(F)cc1)[C@H]1CC=C[C@@H]21 29.7%
Cn1cc(S(=O)(=O)N2CCCCC2)cc1C(=O)Nc1cccc(C#N)c1 -6.69%
Cc1ccc(CCNC(=O)c2ccc3c(=O)n(-c4ccccc4)c(=O)[nH]c3c2)cc1 6.78%
CCC(C)NC(=O)CN1C(=O)COc2ccc(S(=O)(=O)N3CCOCC3)cc21 (stereo not given) -0.615%
COc1cccc(N2CC(NC(=O)/C=C\c3ccc(OC)c(OC)c3)CC2=O)c1 (stereo not given) -6.76%
CCCN(C(=O)Cn1ncc2c([nH]c3ccc(C)cc32)c1=O)c1ccccc1C 1.59%
O=C(Nc1ccc(Cl)cc1)N1CCC(c2ccccc2)C1 (stereo not given) -2.04%
COc1ccc(NC(=O)CCS(=O)(=O)c2nc(-c3ccc4c(c3)OCO4)cc(C(F)(F)F)n2)c(OC)c1 2.35%
COc1ccc(CCNC(=O)c2cc(S(=O)(=O)N3CCCC(C)C3)cn2C)cc1OC (stereo not given) 63.2%
O=C(O)c1ccc2c(c1)N(Cc1ccc(F)cc1Cl)C(=O)c1ccccc1S2 -29.3%
